Laboratory results from the supplement of paper PMC10126150.
Sequences with one replicate were seen in a single cluster, so their values are uncertain.

Tested on: ATP
Experiment: switch fluorescence ratio, 500 uM ATP over buffer (Cy3 cluster intensity, sum of 5 cycles each) (fold (ratio)); higher = stronger signal-on switching upon ATP binding; sequences stand for … in TCGTCGGCAGCGTCAGATGTGTATAAGAGACAGTTTTTTTTTTTTTTTTTTTTTTTTT…TC
Details: aptamer strand: ATP DNA aptamer (quencher-CACCTGGGGGAGTATTGCGGAGGAAGG + anchor), 100 nM annealed; ATP concentration: 500 uM; one replicate
Method in brief: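 Cy3-labelled switching-strand clusters on a modified Illumina MiSeq flow-cell were annealed to 100 nM quencher-labelled ATP aptamer, imaged in selection buffer, then imaged after 15 min with 500 uM ATP at 22 °C. Five buffer/ATP cycles ran, with NaOH stripping and re-annealing between them. The fluorescence ratio is summed target-cycle over summed buffer-cycle Cy3 intensity per cluster, averaged per switch-domain sequence. Clusters outside 100-1000 RFU were excluded.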
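Also: ATP exposure 15 min at 22 °C before imaging.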

Sequence	switch fluorescence ratio
CGGATCTCTG	0.989
GCCGGACATA	1.02
TGCTAGTAGT	1.02
TTTTCAGGTT	1.18
GGCGGCTAGG	0.978
GTAGGAACGG	0.979
GCCGTCTTTG	0.99
ACGAGGGCTG	1.01
TCACCCTCTG	1.03
CTACCGTTTA	1.1
TTTAGAGATC	1.01
CTCTAGTCTG	0.998
ACATGTTATG	0.982
GCGCAATCGA	3.2
CTCAGGTCTA	1.04
GGTCAATAAT	1
TACAGGAAGT	1
CGCGGCAGAC	2.34
AAAAGCCAGC	1.03
ACAGAGTCTT	0.996
AATCGACTGC	1.02
ACCGGGCCCG	1.03
GCGTGATGAC	1.04

Sequence	switch fluorescence ratio
AGATGTTGCG	0.976
CGGCCGGCGC	1.02
TACAGAGGAG	1.03
GATACACTAG	1.04
GTAAAATGGT	1
CTGACTTCTT	0.975
TGATTTTGCA	0.987
GATTGGTCCG	1.01
GCTCCTTGC	1.16
CTTAGGGTCT	0.979
AATTGTGCGG	0.991
CGGTAGGCGT	0.959
GTTCTCCAGG	2.04
ATAAACACTT	1.4
CCGGGATC	2.55
AGGCTAATT	1.04
CTCTTTGGTG	1.07
TTAATAATAG	0.987
GTAGATGCAC	1.03
TTGCAGGGAT	1.69
TTATAGGTGT	1.11
CTTGATTGTA	1.01
TACCTCCTTT	0.993

Sequence	switch fluorescence ratio
TGGTCGGAGT	1
AAGGTGAGGC	0.842
CTCAATGGGC	1.07
TGCTGGAATT	0.992
GTAGCCCGAG	1.02
TAGGTAGGAT	0.976
TTATCCTCCG	3.33
GGAAACCCGT	1.06
CCAGCCCGAC	1.43
CGCACTAAGA	1.06
CTGGTAAAAT	0.987
CACGTCTTCC	1.03
GTAGACAGT	1.02
GTGTCAGCCT	1.01
CGTACCGGGG	1.04
GGGCAGATAG	1.06
TCGGCCTAAG	1.01
TCGTGCTCGG	0.994
CGAGGTCTTC	1
TAGTCAACAA	1.01
GCAACACTGT	1.05
CGGTAACCAC	1.04
TCCCAAGGGC	1.04

Sequence	switch fluorescence ratio
TCTGCTCCTC	1.16
GTTAGGGCTT	0.976
TCGCAGGTAA	1.13
AAACTGCCAG	1.05
CATACTTTGT	1.01
CGCCCCCGGA	1.04
TGGAGCCTAC	1.92
GGCGACCTGT	0.989
CATACCGATT	1.02
TCTATAGTGG	0.983
AATTAGAGTT	0.99
GGTATAGCGT	0.995
GTGGCTGG	1.02
CCGTGGTGGT	1.06
CCTCGATGTG	1.09
GGACGGGATG	0.979
ATGGTAGGG	1.01
AGCGGTTGAC	1.08
TAGTGAGTTC	0.959
GTGACGCCTT	0.99
GGTAAGATAT	1.03
GGGAGACTGA	0.984
GACAGGGTCA	0.937

Sequence	switch fluorescence ratio
GGCTAGATGG	0.949
CGTATACAA	1.03
CCGCTACCCC	1.07
TCGGCGGCTT	1
TTACTGAGTT	1.01
TGTCGATCCG	0.96
TCTTTTCCT	1.05
AATGTTCAGA	0.989
TTTCAATTGG	1.03
CCCTTTAAGT	0.994
GTCTGAGGGA	0.984
AGTTCTTTTT	1.04
ACCCACTCGT	1.36
CTGCCTCGAC	1.26
GATGTACCAG	0.999
CTGTGACCCC	1.1
CCTCGTTCAA	4.09
TAGCCACTAC	1.75
GCGGCGGCTA	1
AAAAAGATGG	0.98
CTTTTCCGTA	1.04
TGAGGTTAGC	1
CTAGGGACCC	0.961

Sequence	switch fluorescence ratio
TATCTAGTAT	0.991
TAGGCATGAG	1.03
GGAGTGGCTG	0.951
TTTCCAATCA	1.14
CACAGAACAA	1.03
AGGATGGTCT	1
CCCGTCCTAT	1.03
CCCTTGCTGC	1.33
TAAACTTCA	1.22
GGTTCCTCCT	1.34
CGCCATCGAT	1.05
ACTTTAAGTT	1.04
GGGAATGATT	0.992
GGTCACGTCA	1.01
ACACATTTGT	1.04
AATGGTACTT	1.09
AACAGTATGA	1.02
GGATACCGGG	0.987
TGTCTGATTG	0.994
CTACTGCTCG	1.02
ATCGTTAATG	0.975
ATCGACCGGG	1.02
TCACAGCGGA	1.04

Sequence	switch fluorescence ratio
TGTCCTAGTG	0.985
GCATCTGAGC	1.02
CACTGGTCGA	0.99
GGCGAGCCTT	1.02
TTAAAATGCG	1.06
GTGAGGTCAA	1.05
GTGTGCCGA	1.05
ATCTTATGCC	0.932
ACCGGGGTCC	1.02
TATCTATCGG	0.962
GGTAAGCCT	1.06
TTGTGACGCT	0.998
AAGTGTCACG	0.999
CGAATGCGAT	1.23
TATTTAAGAT	1.02
CGCGACTTAC	3.71
TAAAAGTGT	0.952
GATCCGTTGG	1.03
GGTGATAC	1.54
